According to the supplement of paper PMC4604168 (melanoma cell lines):
Some of the results follow. Many values rest on one well or one pass, so single values are uncertain.

Legend:
Assay in all cases: cell count relative to DMSO control; melanoma cells; higher = more viable cells
Settings in all cases: library dose: low library concentration; 72 h
WM115 = system: WM115
WM1716 = system: WM1716
WM1745 = system: WM1745
WM3526 = system: WM3526
WM3619 = system: WM3619
WM451Lu = system: WM451Lu
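Note: cell number obtained by counting DAPI-stained nuclei in high-throughput microscope images with image analysis software, screen run in 1,536-well plates.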

| SMILES | cell count (WM115) [%] | cell count (WM1716) [%] | cell count (WM1745) [%] | cell count (WM3526) [%] | cell count (WM3619) [%] | cell count (WM451Lu) [%] |
| --- | --- | --- | --- | --- | --- | --- |
| COCC[n+]1c2c(n(Cc3cnccn3)c1C)C(=O)c1ccccc1C2=O + COc1ccc(COc2ccc(Cc3cnc(N)nc3N)cc2OC)cc1 [GW2580] (first compound 0.0004 µM, partner dose 1 µM) | 104 | 97.2 | 99.2 | 98.6 | 155 | 101 |
| Cn1c(Nc2ccc(C(F)(F)F)cc2)nc2cc(Oc3ccnc(-c4ncc(C(F)(F)F)[nH]4)c3)ccc21 + O=C(Nc1ccccc1)c1cc([N+](=O)[O-])ccc1Cl [GW9662] (first compound 0.08 µM, partner dose 2 µM) | 63.3 | 82.5 | 75.6 | 51.6 | 76.8 | 128 |
| OCc1c[nH]c2ccccc12 [Indole-3-carbinol] + Cn1cc(/C=C2\C(=O)Nc3cccnc32)c2ccccc21 [GW441756] (first compound 0.8 µM, partner dose 0.4 µM) | 97.4 | 95.8 | 103 | 102 | 105 | 103 |
| O=C(CCCCCCC(=O)Nc1ccccc1)NO [vorinostat] + Oc1nc(-c2ccc(C(F)(F)F)cc2)nc2c1CSCC2 [XAV939] (first compound 0.08 µM, partner dose 2 µM) | 91.7 | 64.6 | 88.3 | 97.7 | 80.8 | 74.3 |
| OCc1c[nH]c2ccccc12 [Indole-3-carbinol] + CO[C@@H]1[C@H](N(C)C(=O)c2ccccc2)C[C@H]2O[C@]1(C)n1c3ccccc3c3c4c(c5c6ccccc6n2c5c31)C(=O)NC4 [Midostaurin] (first compound 0.8 µM, partner dose 0.08 µM) | 80.5 | 56.8 | 75.7 | 94.2 | 96.8 | 81.2 |
| Clc1ccc(Nc2nnc(Cc3ccncc3)c3ccccc23)cc1 [vatalanib] + COC(=O)c1sccc1S(=O)(=O)Nc1ccc(Nc2ccccc2)cc1OC [GSK0660] (first compound 2 µM, partner dose 1 µM) | 91.6 | 114 | 107 | 106 | 84.8 | 82.7 |
| COCC[n+]1c2c(n(Cc3cnccn3)c1C)C(=O)c1ccccc1C2=O + COc1ccc2c(c1)CCC1C2CCC2(C)C(NCCCCCCN3C(=O)C=CC3=O)CCC12 [U73122] (first compound 0.0004 µM, partner dose 0.4 µM) | 113 | 79.7 | 109 | 99.4 | 117 | 85.7 |
| COCC[n+]1c2c(n(Cc3cnccn3)c1C)C(=O)c1ccccc1C2=O + CC1(C)NC(=O)N(c2ccc([N+](=O)[O-])c(C(F)(F)F)c2)C1=O [nilutamide] (first compound 0.0004 µM, partner dose 1 µM) | 87.8 | 96.5 | 93.6 | 83.1 | 81 | 64.8 |
| C#Cc1cccc(Nc2ncnc3cc(OCCOC)c(OCCOC)cc23)c1 [erlotinib] + Cn1nnc2c(C(N)=O)ncn2c1=O [temozolomide] (first compound 0.8 µM, partner dose 2 µM) | 96.1 | 84 | 95.9 | 76.6 | 97.2 | 92.5 |
| COCC[n+]1c2c(n(Cc3cnccn3)c1C)C(=O)c1ccccc1C2=O + Cn1cncc1[C@@](N)(c1ccc(Cl)cc1)c1ccc2c(c1)c(-c1cccc(Cl)c1)cc(=O)n2C [tipifarnib] (first compound 0.0004 µM, partner dose 0.01 µM) | 84.2 | 90.1 | 102 | 72.8 | 97.3 | 70.7 |
| Clc1ccc(Nc2nnc(Cc3ccncc3)c3ccccc23)cc1 [vatalanib] + COc1ccc(Cl)c(Nc2nc3ccccc3nc2NS(=O)(=O)c2cccc(NC(=O)C(C)(C)N)c2)c1 [XL147] (first compound 2 µM, partner dose 0.8 µM) | 101 | 74.5 | 111 | 103 | 84.5 | 92.3 |
| C#Cc1cccc(Nc2ncnc3cc(OCCOC)c(OCCOC)cc23)c1 [erlotinib] + N#Cc1c(O)c2c(-c3ccc(-c4ccccc4O)cc3)csc2[nH]c1=O [A769662] (first compound 0.8 µM, partner dose 2 µM) | 91.4 | 98.4 | 88.2 | 97 | 129 | 111 |
| OCc1c[nH]c2ccccc12 [Indole-3-carbinol] + O=C1NC(=O)/C(=C/c2ccc(-c3ccc(F)cc3O)o2)S1 [AS252424] (first compound 0.8 µM, partner dose 1 µM) | 94.5 | 91.8 | 92.2 | 96 | 99.4 | 105 |
| O=C(CCCCCCC(=O)Nc1ccccc1)NO [vorinostat] + Cc1ccc(NC(=O)c2cccc(N(C)C)c2)cc1NC(=O)c1ccc(O)cc1 [ZM336372] (first compound 0.08 µM, partner dose 2 µM) | 93.5 | 123 | 91.4 | 80 | 91.6 | 87.2 |
| Clc1ccc(Nc2nnc(Cc3ccncc3)c3ccccc23)cc1 [vatalanib] + NCC(=O)Nc1ccc(-n2nc(C(F)(F)F)cc2-c2ccc3c(ccc4ccccc43)c2)cc1 [OSU03012] (first compound 2 µM, partner dose 1 µM) | 86 | 97.3 | 93.3 | 53.5 | 113 | 61.8 |
| OCc1c[nH]c2ccccc12 [Indole-3-carbinol] + C[C@]1(c2nc3c(C(N)=O)cccc3[nH]2)CCCN1 [Veliparib] (first compound 0.8 µM, partner dose 1.4 µM) | 93 | 84.5 | 85.3 | 118 | 73.9 | 92.7 |
| Clc1ccc(Nc2nnc(Cc3ccncc3)c3ccccc23)cc1 [vatalanib] + CC1(C)NC(=O)N(c2ccc([N+](=O)[O-])c(C(F)(F)F)c2)C1=O [nilutamide] (first compound 2 µM, partner dose 1 µM) | 86.3 | 85.8 | 83.1 | 77.5 | 97.5 | 82.9 |
| C#Cc1cccc(Nc2ncnc3cc(OCCOC)c(OCCOC)cc23)c1 [erlotinib] + Oc1nc(-c2ccc(C(F)(F)F)cc2)nc2c1CSCC2 [XAV939] (first compound 0.8 µM, partner dose 2 µM) | 83.9 | 56.2 | 74.6 | 96.2 | 111 | 93 |
| OCc1c[nH]c2ccccc12 [Indole-3-carbinol] + CC(C)CCN1c2nc(Nc3cc(F)c(O)c(F)c3)ncc2N(C)C(=O)C1C [BID1870] (first compound 0.8 µM, partner dose 0.2 µM) | 100 | 96.8 | 96.2 | 89 | 108 | 88.4 |
| OCc1c[nH]c2ccccc12 [Indole-3-carbinol] + Cc1nc(Nc2ncc(C(=O)Nc3c(C)cccc3Cl)s2)cc(N2CCN(CCO)CC2)n1 [dasatanib] (first compound 0.8 µM, partner dose 0.004 µM) | 81 | 77.6 | 65.8 | 116 | 90.4 | 85.8 |
| O=C(CCCCCCC(=O)Nc1ccccc1)NO [vorinostat] + COc1ccc2c(c1)CCC1C2CCC2(C)C(NCCCCCCN3C(=O)C=CC3=O)CCC12 [U73122] (first compound 0.08 µM, partner dose 0.4 µM) | 97.3 | 108 | 94.4 | 84 | 114 | 90 |
| Cn1c(Nc2ccc(C(F)(F)F)cc2)nc2cc(Oc3ccnc(-c4ncc(C(F)(F)F)[nH]4)c3)ccc21 + c1cc(-c2cnn3cc(-c4ccc(OCCN5CCCCC5)cc4)cnc23)ccn1 [Dorsomorphin] (first compound 0.08 µM, partner dose 0.4 µM) | 65.9 | 79.6 | 47 | 65.3 | 76.2 | 68.6 |
| Nc1cccc2c1CN(C1CCC(=O)NC1=O)C2=O (configuration not stated) [lenalidomide] + C[C@@H]1CCN(C(=O)CC#N)C[C@@H]1N(C)c1ncnc2[nH]ccc12 [CP690550] (first compound 1 µM, partner dose 1 µM) | 105 | 97.3 | 97.2 | 114 | 96.1 | 97.9 |
| Nc1cccc2c1CN(C1CCC(=O)NC1=O)C2=O (configuration not stated) [lenalidomide] + COc1ccc2c(c1)CCC1C2CCC2(C)C(NCCCCCCN3C(=O)C=CC3=O)CCC12 [U73122] (first compound 1 µM, partner dose 0.4 µM) | 101 | 97.6 | 86.3 | 82.9 | 82.4 | 99.3 |
| COCC[n+]1c2c(n(Cc3cnccn3)c1C)C(=O)c1ccccc1C2=O + C[C@@H]1CCN(C(=O)CC#N)C[C@@H]1N(C)c1ncnc2[nH]ccc12 [CP690550] (first compound 0.0004 µM, partner dose 1 µM) | 79.8 | 104 | 90.3 | 104 | 103 | 36.1 |
| O=C(CCCCCCC(=O)Nc1ccccc1)NO [vorinostat] + COc1cc(N2CCC(N3CCN(C)CC3)CC2)ccc1Nc1ncc(Cl)c(Nc2ccccc2S(=O)(=O)C(C)C)n1 [NVP-TAE684] (first compound 0.08 µM, partner dose 0.08 µM) | 107 | 110 | 108 | 95.9 | 95.6 | 88.4 |
| Clc1ccc(Nc2nnc(Cc3ccncc3)c3ccccc23)cc1 [vatalanib] + CN(C)S(=O)(=O)c1ccc2c(c1)/C(=C/c1cc3c([nH]1)CCCC3)C(=O)N2 [SU6656] (first compound 2 µM, partner dose 0.4 µM) | 85.5 | 108 | 89 | 97.2 | 93.9 | 98.3 |
